PMC4336329 (PLoS ONE, 2015)
About 14,000 (4.5%) of roughly 310,000 compounds showed an effect of 50% or more. Effects have a minus sign here. Some of the results follow.

Target: human ether-à-go-go-related gene (hERG) potassium channel (human, UniProt Q12809)
Assay: primary screen, population patch clamp on CHO cells stably expressing hERG
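Further: peak tail current of the secondary pulse compared with the same well before compound.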

Sequence of human ether-à-go-go-related gene (hERG) potassium channel (Q12809 whole entry, looked up): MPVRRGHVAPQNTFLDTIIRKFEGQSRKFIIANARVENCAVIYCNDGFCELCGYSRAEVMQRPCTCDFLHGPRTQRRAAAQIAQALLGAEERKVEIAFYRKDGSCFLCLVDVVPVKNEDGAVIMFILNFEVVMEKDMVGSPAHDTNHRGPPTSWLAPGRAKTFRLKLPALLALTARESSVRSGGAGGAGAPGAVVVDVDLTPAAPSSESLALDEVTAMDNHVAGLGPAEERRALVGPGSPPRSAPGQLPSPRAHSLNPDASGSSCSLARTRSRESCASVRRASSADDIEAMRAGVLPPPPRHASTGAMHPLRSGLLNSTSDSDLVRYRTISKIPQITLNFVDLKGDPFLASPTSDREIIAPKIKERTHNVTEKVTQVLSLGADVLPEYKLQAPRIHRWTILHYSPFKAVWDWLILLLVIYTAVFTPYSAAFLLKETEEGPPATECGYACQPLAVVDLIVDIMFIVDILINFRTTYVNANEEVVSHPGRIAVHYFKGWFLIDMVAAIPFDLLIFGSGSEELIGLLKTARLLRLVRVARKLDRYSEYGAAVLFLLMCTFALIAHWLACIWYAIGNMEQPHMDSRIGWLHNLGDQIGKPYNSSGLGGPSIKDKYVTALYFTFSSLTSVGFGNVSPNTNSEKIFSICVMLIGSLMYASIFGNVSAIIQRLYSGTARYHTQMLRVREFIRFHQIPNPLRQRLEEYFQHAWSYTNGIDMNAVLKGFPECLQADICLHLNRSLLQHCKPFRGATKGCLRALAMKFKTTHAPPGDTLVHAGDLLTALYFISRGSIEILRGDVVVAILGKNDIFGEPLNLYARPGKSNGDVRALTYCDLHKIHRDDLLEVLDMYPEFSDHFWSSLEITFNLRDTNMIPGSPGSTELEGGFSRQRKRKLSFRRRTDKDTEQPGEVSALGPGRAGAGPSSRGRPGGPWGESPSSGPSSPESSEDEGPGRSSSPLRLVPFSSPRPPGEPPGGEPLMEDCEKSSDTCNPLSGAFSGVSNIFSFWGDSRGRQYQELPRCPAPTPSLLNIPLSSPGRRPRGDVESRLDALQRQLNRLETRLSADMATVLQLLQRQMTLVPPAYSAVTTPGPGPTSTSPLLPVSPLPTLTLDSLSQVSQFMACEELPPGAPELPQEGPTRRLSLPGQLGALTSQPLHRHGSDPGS

SMILES | hERG current change (%, negative = inhibition) at 10uM [%]
Cc1ccc(Cn2c(=N)c(C(=O)NCCN3CCOCC3)cc3c(=O)n4ccccc4nc32)cc1 | -63.2
CC(=O)Cc1c(C(=O)O)c(C)nn1-c1ccccc1 | 21.5
O=C1CC(c2ccc3c(c2)OCO3)Sc2nc3ccccc3n21 (centres unmarked) | -2.47
CCCCCNC(=O)C1c2ccccc2Oc2ccccc21 | 2.44
COc1ccccc1N1CCN(C(=O)C(CC(C)C)NC(=O)C2CCCCC2)CC1 (centres unmarked) | -16.6
CS(=O)(=O)N(CC(=O)NC1CCCCC1)Cc1ccc(F)cc1 | 15.8
CCCCn1c(SCC(=O)NCc2cccs2)nc2c1c(=O)n(C)c(=O)n2C | -35.4
O=C(Cc1ccc2c(c1)CCCC2)Nc1ccc2ccccc2c1 | 27.2
COc1ccccc1C(=O)NC(=S)Nc1ccc(NC(=O)c2ccco2)cc1 | -26
Cc1cc(OCC(=O)Nc2cnn(CCCC(=O)O)c2)ccc1Cl | 18
Cc1ccc(Oc2c(C)nc(-c3ccccc3)[nH]c2=O)cc1 | -14.1
CS(=O)(=O)c1ccc(Cl)c(C(=O)O)c1 | 11
Cc1cccc(NC2=NCCCS2)c1 | 6.3
O=C(C(Sc1ccccc1)c1ccccc1)N1CCN(c2ccccc2F)CC1 (centres unmarked) | -3.71
O=C(CSc1nnnn1C1CCCC1)NCc1ccc2c(c1)OCO2 | -0.506
COCCN(C(=O)CSc1ncn[nH]1)c1c(N)n(Cc2ccccc2)c(=O)[nH]c1=O | 24.4
CC(C)[C@H](CN(N=O)[C@@H](Cc1ccccc1)CN(C)N=O)N(CCc1ccccc1)N=O.[Na+] | -0.676
CN1C(=O)C(=Cc2c(OCc3cnc(Cl)s3)ccc3ccccc23)C(=O)N(C)C1=O | 9.91
CN(C(=O)Cc1c[nH]c2ccccc12)C(C(=O)Nc1ccc2c(c1)OCO2)c1ccccc1 (centres unmarked) | -3.18
Cc1ccc(NC(=O)CSCC(=O)Nc2nnc(C)s2)cc1 | 5.54
COc1ccc(C2(C(N)=O)CCCCC2)cc1OC | 12.4
CCCCNCc1ccc(OCc2ccc(Cl)nc2)c(OC)c1.Cl | -32.7
Cc1ccc(C(=O)c2cc(C)sc2NC(=O)CN2CCN(C(=O)c3ccco3)CC2)cc1 | -11.7

SMILES | hERG current change (%, negative = inhibition) at 10uM [%]
CCN1/C(=C2\C(=O)N(C)C(=S)N2C)C=Cc2cc(C)ccc21 | -33.4
Cc1ccccc1NC(=O)c1cccc(NC(=O)c2ccco2)c1 | 3.64
COc1ccc(-c2sc(C(=O)c3ccc(Cl)cc3Cl)cc2CC(=O)O)cc1 | 9.99
Cc1ccc2c(c1)C1CN(C)CCC1N2S(=O)(=O)c1ccccc1F (centres unmarked) | -32.4
CC(=O)N1CCN(C(=O)CCc2nc3sc4c(c3c(=O)[nH]2)CCCC4)CC1 | 5.61
CC(=O)NN1C(=O)c2ccccc2NC1c1cccnc1 (centres unmarked) | 28.3
N#CCC(=O)c1sccc1-n1cccc1 | 16
COCCn1c(C)cc(C(=O)COC(=O)c2ccc(Br)o2)c1C | -36.2
O=C1Nc2ncccc2OC1CCO (centres unmarked) | 20.8
COc1ccc(CNC(=S)N2CCN(Cc3ccccc3)CC2)cc1 | -22.4
COc1ccc2nc(C)cc(Sc3nc4ccccc4s3)c2c1 | 15.1
COc1ccc(N2CCC(CNC(=S)Nc3c(C)cccc3C)C2)cc1 (centres unmarked) | -4.72
CC(C)(C)c1ccc(C(=O)NNC(=O)CCc2ccccc2)cc1 | 7.16
Cc1nc(SCC(=O)NC(C)(C)C)c2c(-c3cccs3)csc2n1 | -33.1
Fc1ccccc1Nc1n[nH]c(=S)s1 | 18.3
CCOCC(=O)Nc1nc2c(s1)C(=O)CC(C)(C)C2 | 1.56
COc1ccccc1NC(=O)Cc1csc(NC(=O)c2ccccc2)n1 | 7.93
CCNc1cc(N2CCCC2)ccc1[N+](=O)[O-] | 0.922
CC(C)c1nnc(SCC(=O)Nc2ccc3c(c2)OCCO3)n1C | 3.37
Cc1[nH]n(-c2ccccc2)c(=O)c1C=NC1CCCCC1 | -10.5
O=C(CN1CCN(S(=O)(=O)N2CCCCC2)CC1)Nc1ccc(Cl)c(Cl)c1 | -28.2
O=C(N/N=C/c1coc2ccccc2c1=O)c1cc2ccccc2o1 | 2.41
C/C(=N\NC(=O)CCc1ccccc1)c1ccc(Br)cc1 | 11

SMILES | hERG current change (%, negative = inhibition) at 10uM [%]
COC(=O)CN1C(=O)N/C(=C/c2ccccc2OC)C1=O | -0.466
CCOC(=O)c1c(CSc2ccccc2)n(C)c2cc(Br)c(OC)c(O)c12 | 16.2
CCOc1ccc(S(=O)(=O)N2CCc3cc(OC)c(OC)cc3C2)cc1 | -29.1
Cc1ccc(NC(=O)c2ccccc2)cc1 | 3.32
O=C(CN1C(=O)NC2(CCc3ccccc32)C1=O)Nc1ccc(N2CCOCC2)cc1 (centres unmarked) | 3.09
Cc1ccc(S(=O)(=O)c2nc(S(C)(=O)=O)sc2N2CCC(C)CC2)cc1 | 9.53
CC(=O)Nc1ccc(NC(=O)C2CC(=O)N(c3ccc(Cl)cc3)C2)cc1 (centres unmarked) | -0.124
CN(Cc1ccccc1F)c1nc(-c2cccnc2)nc2ccccc12 | 3.92
COc1cc(NC(=O)c2cnn3c(C(F)F)cc(C4CC4)nc23)c(OC)cc1Cl | -1.25
CCOc1cccc(-c2c(C(=O)N/N=C(\C)c3ccccn3)nnn2-c2nonc2N)c1 | -3.45
COC(=O)c1ccc2c(=O)n(CCCCCC(=O)NCCNC(C)=O)c(=O)[nH]c2c1 | 10.2
CCOP(=O)(OCC)C1(C(=O)[O-])CCCC1.[NH4+] | 3.87
COC(=O)CCNC(=O)c1ccc2nc(Cc3ccc(OC)c(OC)c3)oc2c1 | 16
Cc1ccc(C(C(=O)NCc2ccco2)N(C(=O)CNC(=O)c2cccs2)c2ccc(C)cc2C)cc1 (centres unmarked) | -10.3
Cc1ccc(C(=O)NC2CCN(CC(=O)NCc3cccs3)CC2)cc1 | -29.7
CC(=O)Nc1cccc(N/C=C(\C=O)c2nc3ccccc3o2)c1 | -20.6
CN1c2ccccc2-c2nc3ccccc3n2C1c1ccco1 (centres unmarked) | -15.3
O=C1N(c2ccccc2C(F)(F)F)O[C@@]1(c1ccccc1)C1CCCC1 | 14.5
Cc1[nH]nc(SCC(=O)NC(C)c2ccccc2)c1[N+](=O)[O-] (centres unmarked) | 0.565
O=C1CC(N2CCSCC2)C(=O)N1c1ccc(Br)cc1 (centres unmarked) | -10.8
Br.O=C(Cn1c(NCCO)nc2ccccc21)c1ccco1 | 0.663
CCCCn1c(SCC(=O)Nc2nnc(CC)s2)nc2ccccc2c1=O | 1.88
CCN(CC)CCN(CC)Cc1ccccc1Br | -19.8

SMILES | hERG current change (%, negative = inhibition) at 10uM [%]
FC(F)(F)c1cnc(-c2cnc(-c3ccncc3)nc2)c(Cl)c1 | -20.9
COc1ccc(-c2csc(=Nc3c(C)n(C)n(-c4ccccc4)c3=O)n2C(C)(C)C)cc1 | -21.4
NC(=O)c1cc(S(=O)(=O)NCc2ccc(F)cc2)cs1 | 3.37
COc1ccccc1Nc1nc(-c2sc(NC(=O)CC(C)C)nc2C)cs1 | 5.43
O=C(CCN1C(=O)C2C3C=CC(C3)C2C1=O)N1CC(=O)N(CCc2ccccc2)C(=O)C1 (centres unmarked) | -29
COc1cc(C(=O)N/N=C/c2ccc(OC(=O)c3ccccc3Cl)cc2)ccc1O | -10.5
CCC(=C(c1ccc(OC)cc1)c1ccc(OC)cc1)c1cn(CC(O)CN2CCN(C)CC2)c2ccccc12 (centres unmarked) | -6.39
O=C(NCc1cn2ccccc2n1)C1CCC(=O)N(Cc2ccccc2F)C1 (centres unmarked) | 2.43
O=C(CSc1nnnn1C1CC1)N1CCN(c2ccc(O)cc2)CC1 | -3.87
O=C(NC1CC1)C1=C[C@@H](C2CCCCC2)C[C@@H](OCc2ccc(CO)cc2)O1 | -15.9
Cc1cccc(NC(=S)N2CCN(S(=O)(=O)c3ccccc3)CC2)c1 | 5.35
COc1ccc(OC)c(CCNC(=O)CC2(CC3=NS(=O)(=O)c4ccccc4N3)CCCC2)c1 | -11.2
O=Cc1c(C(=O)O)n(Cc2ccc(F)cc2Cl)c2ccccc12 | 18
COc1cc(C2CC(c3c(C)cc(C)[nH]c3=O)=NN2c2ccccc2F)cc(OC)c1OC (centres unmarked) | -3.68
Fc1ccc(-n2[nH]nnc2=S)cc1N1CCCC1 | 13.4
CC1CC(C)CN(C(=O)C(Cc2ccccc2)NC(=O)c2ccccc2)C1 (centres unmarked) | -10
COC(=O)C1=CN(c2cccc(C)c2)C=C(C(=O)OC)C1c1cc(OC)c(O)c([N+](=O)[O-])c1 | -29.1
Cc1cccc(NC(=S)N2CCOCC2)c1C | -3.76
CN(C)c1ccc(/C=N/c2cc(-c3ccccc3)nn2-c2ccccc2)cc1 | 5.79
CC(C)C(NCc1c(Cl)cccc1Cl)C(=O)O (centres unmarked) | 2.54
